# Reference: PMC9911399
# Some of the results follow.
# Target: T1, RBFOX1 RRM (Homo sapiens) (UniProt Q9NWB1)
# T1 sequence: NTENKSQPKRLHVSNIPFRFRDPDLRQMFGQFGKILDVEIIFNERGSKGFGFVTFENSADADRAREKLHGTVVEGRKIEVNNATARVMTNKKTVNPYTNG
# Assay: EMSA
# Conditions: HiTS-Eq, 1 nM pool, 10 min; buffer printed only for the single-RNA assays: 10 mM Tris pH 7.5, 150 mM NaCl, 3.4 mM EDTA, 0.001% NP-40, 30 C
row,Sequence,binding signal (KA relative to UGCAUGU)
1,GGGAGACCGGAAUUCAGAUUGUCCGGGACCCUUAAAUCCCGUCGUAGCCACCA / CAATCTGAATTCCGGTCTCCC / TGGTGGCTACGACGGGATT,0.0206
2,GGGAGACCGGAAUUCAGAUUGUCCACUCCCUUUAAAUCCCGUCGUAGCCACCA / CAATCTGAATTCCGGTCTCCC / TGGTGGCTACGACGGGATT,0.00585
3,GGGAGACCGGAAUUCAGAUUGUCCCGGUCCCUUAAAUCCCGUCGUAGCCACCA / CAATCTGAATTCCGGTCTCCC / TGGTGGCTACGACGGGATT,0.0116
4,GGGAGACCGGAAUUCAGAUUGUCCGGUCCUGUUAAAUCCCGUCGUAGCCACCA / CAATCTGAATTCCGGTCTCCC / TGGTGGCTACGACGGGATT,0.00897
5,GGGAGACCGGAAUUCAGAUUGUCCGGGCCCCUUAAAUCCCGUCGUAGCCACCA / CAATCTGAATTCCGGTCTCCC / TGGTGGCTACGACGGGATT,0.0186
6,GGGAGACCGGAAUUCAGAUUGUCCUCCCACAUUAAAUCCCGUCGUAGCCACCA / CAATCTGAATTCCGGTCTCCC / TGGTGGCTACGACGGGATT,0.0187
7,GGGAGACCGGAAUUCAGAUUGUCCGGUUCCCUUAAAUCCCGUCGUAGCCACCA / CAATCTGAATTCCGGTCTCCC / TGGTGGCTACGACGGGATT,0.0193
8,GGGAGACCGGAAUUCAGAUUGUCCUCCCAUCUUAAAUCCCGUCGUAGCCACCA / CAATCTGAATTCCGGTCTCCC / TGGTGGCTACGACGGGATT,0.00712
9,GGGAGACCGGAAUUCAGAUUGUCCCCCACCGUUAAAUCCCGUCGUAGCCACCA / CAATCTGAATTCCGGTCTCCC / TGGTGGCTACGACGGGATT,0.00705
10,GGGAGACCGGAAUUCAGAUUGUCCGGUCUGAUUAAAUCCCGUCGUAGCCACCA / CAATCTGAATTCCGGTCTCCC / TGGTGGCTACGACGGGATT,0.0219
11,GGGAGACCGGAAUUCAGAUUGUCCUCUCCCCUUAAAUCCCGUCGUAGCCACCA / CAATCTGAATTCCGGTCTCCC / TGGTGGCTACGACGGGATT,0.0106
12,GGGAGACCGGAAUUCAGAUUGUCCGGCUCCAUUAAAUCCCGUCGUAGCCACCA / CAATCTGAATTCCGGTCTCCC / TGGTGGCTACGACGGGATT,0.00101
13,GGGAGACCGGAAUUCAGAUUGUCCCCCCAUAUUAAAUCCCGUCGUAGCCACCA / CAATCTGAATTCCGGTCTCCC / TGGTGGCTACGACGGGATT,0.000342
14,GGGAGACCGGAAUUCAGAUUGUCCCCCCCCGUUAAAUCCCGUCGUAGCCACCA / CAATCTGAATTCCGGTCTCCC / TGGTGGCTACGACGGGATT,0.0132
15,GGGAGACCGGAAUUCAGAUUGUCCCCCCCAGUUAAAUCCCGUCGUAGCCACCA / CAATCTGAATTCCGGTCTCCC / TGGTGGCTACGACGGGATT,0.00076
16,GGGAGACCGGAAUUCAGAUUGUCCCCCACUAUUAAAUCCCGUCGUAGCCACCA / CAATCTGAATTCCGGTCTCCC / TGGTGGCTACGACGGGATT,0.00309
17,GGGAGACCGGAAUUCAGAUUGUCCCCCGAAAUUAAAUCCCGUCGUAGCCACCA / CAATCTGAATTCCGGTCTCCC / TGGTGGCTACGACGGGATT,0.00373
18,GGGAGACCGGAAUUCAGAUUGUCCGCUCUCCUUAAAUCCCGUCGUAGCCACCA / CAATCTGAATTCCGGTCTCCC / TGGTGGCTACGACGGGATT,0.00438
19,GGGAGACCGGAAUUCAGAUUGUCCCCCCACGUUAAAUCCCGUCGUAGCCACCA / CAATCTGAATTCCGGTCTCCC / TGGTGGCTACGACGGGATT,0.00292
20,GGGAGACCGGAAUUCAGAUUGUCCGACGGGAUUAAAUCCCGUCGUAGCCACCA / CAATCTGAATTCCGGTCTCCC / TGGTGGCTACGACGGGATT,0.0133
21,GGGAGACCGGAAUUCAGAUUGUCCGGUCUGCUUAAAUCCCGUCGUAGCCACCA / CAATCTGAATTCCGGTCTCCC / TGGTGGCTACGACGGGATT,0.0698
22,GGGAGACCGGAAUUCAGAUUGUCCCCCACCAUUAAAUCCCGUCGUAGCCACCA / CAATCTGAATTCCGGTCTCCC / TGGTGGCTACGACGGGATT,0.012
23,GGGAGACCGGAAUUCAGAUUGUCCCCCCGGUUUAAAUCCCGUCGUAGCCACCA / CAATCTGAATTCCGGTCTCCC / TGGTGGCTACGACGGGATT,0.0165
24,GGGAGACCGGAAUUCAGAUUGUCCCCCCCUAUUAAAUCCCGUCGUAGCCACCA / CAATCTGAATTCCGGTCTCCC / TGGTGGCTACGACGGGATT,0.00102
25,GGGAGACCGGAAUUCAGAUUGUCCCCCCUCCUUAAAUCCCGUCGUAGCCACCA / CAATCTGAATTCCGGTCTCCC / TGGTGGCTACGACGGGATT,0.000743
26,GGGAGACCGGAAUUCAGAUUGUCCUCCCCCAUUAAAUCCCGUCGUAGCCACCA / CAATCTGAATTCCGGTCTCCC / TGGTGGCTACGACGGGATT,0.000355
27,GGGAGACCGGAAUUCAGAUUGUCCGGACCCCUUAAAUCCCGUCGUAGCCACCA / CAATCTGAATTCCGGTCTCCC / TGGTGGCTACGACGGGATT,0.0146
28,GGGAGACCGGAAUUCAGAUUGUCCCCCUCUAUUAAAUCCCGUCGUAGCCACCA / CAATCTGAATTCCGGTCTCCC / TGGTGGCTACGACGGGATT,0.000282
29,GGGAGACCGGAAUUCAGAUUGUCCGCUCCCCUUAAAUCCCGUCGUAGCCACCA / CAATCTGAATTCCGGTCTCCC / TGGTGGCTACGACGGGATT,0.00879
